Measurements as given in PubChem BioAssay (NCATS).
“And” between values parts separate entries of the source, which are not always exact repeats. Equal entries are not always repeated. For part of these data: “Side channel” marks fits to a control or component signal instead of the main read-out. The source made the active and inactive calls. Unless noted, calls come from the whole dose curve; as a rule, active = well fitted curve in the direction sought with a large enough effect; inconclusive = small, poorly fitted or top-dose-only effect, or another doubt; inactive = no such curve, though single readings can be large; an effect the other way counts as inactive or inconclusive.

Columns and labels:
[1] = AP1 Signaling Pathway (AID 357; active = well fitted curve in either direction with a large enough effect, not every such curve was filed as active; inconclusive = small, poorly fitted or top-dose-only effect, or another doubt;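 note: ME-180 reporter cells stimulated with EGF at its EC50 level; top concentration of the series differs between compounds; % is set by controls: 0 for no effect and ±100 for the full control effect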); settings: ME-180 (cervical carcinoma) AP-1-bla reporter, EGF-induced, beta-lactamase ratio, 5 h; at 17.2 µM (top of the series) unless noted
Method in brief: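 Beta-lactamase reporter under AP-1 response element, ME-180 background. Stimulus: EC50 EGF. Compound exposure 5 h, 37 °C. Detection: CCF4, 2.5 h RT, 460/530 nm. Values: AC50 from titration.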

[2] = NFAT Signaling Pathway (AID 444; active = well fitted curve in either direction with a large enough effect, not every such curve was filed as active; inconclusive = small, poorly fitted or top-dose-only effect, or another doubt;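 note: carbachol stimulus at about its EC50 of 1 µM final; % is set by controls: 0 for no effect and ±100 for the full control effect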); settings: Jurkat NFAT-bla M1, carbachol, beta-lactamase ratio, 5 h; at 7.69 µM (top of the series) unless noted
Method in brief: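 Read-out: CCF4 FRET ratio (460 nm/530 nm) after 1 h RT dye loading, used for %activity and AC50 from titration series. Cells: Jurkat NFAT-β-lactamase/M1 line, treated with compound plus 1 uM carbachol for 5 h, 37 °C.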

[3] = qHTS Assay for Lipid Storage Modulators (AID 1519; calls by dose curve; note: potency is the fitted concentration of half-maximal effect; for activity change, negative = inhibition: % is set by controls: 0 for no effect and ±100 for the full control effect); settings: Drosophila S3 cells, BODIPY lipid droplet/cell ratio, laser cytometry, cells loaded with oleic acid; activity change, negative = inhibition: at 57.5 µM (top of the series) unless noted
Method in brief: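 Cells seeded at 5,000 per well were treated with compounds over a concentration series and loaded with oleic acid (400 uM, as added). Lipid droplet fluorescence (488 nm excitation, 500-530 nm channel) was read by laser-scanning cytometry and normalized to 20 uM Triacsin C.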

[4] = Cell Viability - MRC5 (AID 434; calls by dose curve;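 note: potency is the fitted concentration of half-maximal effect; cells exposed to compound for 40 hours at 37 °C; potency reflects cytotoxicity seen as loss of intracellular ATP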); settings: MRC5 lung fibroblast viability, qHTS
Method in brief: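 qHTS cytotoxicity in human lung fibroblast MRC5 cells; 40 hr treatment, 37 °C; cellular ATP by luciferase luminescence; DMSO = 0%, 100 uM tamoxifen = 100% inhibition; Hill-fit AC50.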

[5] = Cell Viability - SK-N-SH (AID 435; calls by dose curve;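 note: potency is the fitted concentration of half-maximal effect; compound exposure lasted 40 h at 37 °C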); settings: SK-N-SH neuroblastoma cell viability qHTS
Method in brief: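 Cells seeded at 1500 per well and incubated 5 hr at 37 °C. Compound added, then 40 hr at 37 °C. CellTiter-Glo added, 20 min at room temperature, luminescence read.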

[6] = Cell Viability - N2a (AID 540); settings: N2a mouse neuroblastoma cell viability; activity change, negative = cytotoxicity: at 92.2 µM (top of the series);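 note: cells exposed to compound for 40 h at 37 °C; plate controls were DMSO alone for no effect and tamoxifen control for full effect; nearly all actives have a fitted effect of over 45% in size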
Method in brief: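 First, 1500 N2a cells per well incubate 5 hr at 37 °C; next, compounds are added and incubated 40 hr at 37 °C; finally CellTiter-Glo is added and luminescence read after 20 min, with AC50 derived by Hill modeling.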

[7] = Cell Viability - NIH 3T3 (AID 541); settings: NIH 3T3 cell viability, qHTS; activity change, negative = cytotoxicity: at 92.2 µM (top of the series);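 note: cells exposed to compound for 40 hours; plate controls were DMSO alone for no effect and tamoxifen positive control for full effect; nearly all actives have a fitted effect of over 25% in size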
Method in brief: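 AC50 values reflect concentration-dependent loss of intracellular ATP in NIH 3T3 cells after 40 hr treatment in complete culture medium, quantified by luciferase-based luminescence.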

[8] = Cell Viability - H-4-II-E (AID 543);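 note: potency is the fitted concentration of half-maximal effect; cells exposed to compound for 40 hours; nearly all actives have a fitted effect of over 35% in size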
Method in brief: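 Here, cytotoxicity is measured in the rat hepatoma line H-4-II-E as loss of intracellular ATP after 40 hr compound treatment, detected by luciferase luminescence.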

[9] = MultiTox-Fluor Cytotoxicity Assay - LYMP1-003 - Dead Cells (AID 961); note: potency is the fitted concentration of half-maximal effect; nearly all actives have a fitted effect of over 70% in size
Method in brief: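 Acute toxicity is scored as increased dead-cell protease activity in human lymphoblastoid LYMP1-003 cells after 16 h compound exposure in complete culture medium. Activity is normalized to DMSO basal and 15 uM tetraoctylammonium bromide as full response.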

[10] = Cell Viability - LYMP2-004 (AID 966); settings: LYMP2-004 lymphoblastoid cell viability, qHTS; activity change, negative = cytotoxicity: at 92.2 µM (top of the series); note: potency is the fitted concentration of half-maximal effect; nearly all actives have a fitted effect of over 65% in size
Method in brief: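 Acute toxicity is scored as a concentration-dependent drop in intracellular ATP, quantified by luciferase luminescence, in human lymphoblastoid cells exposed to compound for 24 hr. AC50 derives from Hill-equation modelling.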

[11] = target: Ubiquitin carboxyl-terminal hydrolase 1 (Homo sapiens) (UniProt O94782); assay: Inhibitors of USP1/UAF1: Pilot qHTS (AID 504865);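 note: rhodamine fluorescence freed from ubiquitin-rhodamine substrate followed over time; top concentration of the series differs between compounds; % is set by controls: 0 for no effect and ±100 for the full control effect; nearly all actives have a fitted effect of over 35% in size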
Method in brief: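 Kinetic fluorescence assay: 1nM USP1/UAF1, 15 min compound preincubation, then 150nM Ub-Rho; 480/540 nm.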

[12] = target: Estrogen receptor (Homo sapiens) (UniProt P03372); assay: qHTS assay for small molecule antagonists of estrogen receptor alpha signaling (AID 588513; active = well fitted curve in the direction sought with a large enough effect in the signal ratio, with a control signal flat, not every such curve was filed as active; inconclusive = small, poorly fitted or top-dose-only effect, or effect the other way, or a change in a side signal; inactive = no such curve, though single readings can be large or run the other way; the % refers to the signal ratio; note: potency is the fitted concentration of half-maximal effect); settings: ER-alpha-UAS-bla HEK293, beta-lactamase ratio, antagonist mode; activity, negative = inhibition: at 76.9 µM (top of the series)
Method in brief: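 Cells were plated at 5000/well and incubated 4 h at 37 C. Compounds were added as 1:2 dilution series, duplicates. 17-beta-estradiol (0.5nM final) was added for 18 h before CCF4 detection.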

[13] = target: Estrogen receptor (Homo sapiens) (UniProt P03372); assay: qHTS assay for small molecule agonists of estrogen receptor alpha signaling (AID 588514; calls by dose curve;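 note: 0% = vehicle only and 100% = reference agonist; nearly all actives have a fitted effect of over 70% in size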); settings: ER-alpha-UAS-bla HEK293, beta-lactamase ratio, 18 h; activation: at 76.8 µM (top of the series), percent of full estradiol response, vehicle zero unless noted
Method in brief: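 Reporter-gene assay. […] controls beta-lactamase in HEK 293 GripTite cells; after 18 hrs with compound, CCF4 substrate is added for 2 hrs and fluorescence is read.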

[14] = target: Androgen receptor (Homo sapiens) (UniProt P10275); assay: qHTS assay for small molecule agonists of androgen receptor signaling (AID 588515; active = well fitted curve in the direction sought with a large enough effect in the signal ratio, with a control signal flat; inconclusive = small, poorly fitted or top-dose-only effect, or effect the other way, or a change in a side signal; inactive = no such curve, though single readings can be large or run the other way; the % refers to the signal ratio; note: % is set by controls: 0 for no effect and ±100 for the full control effect); settings: AR-UAS-bla HEK293, beta-lactamase ratio, agonist 16 h; activation: hits give high values
Method in brief: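 EC50 and efficacy came from Hill fits of titrations (up to 92 uM) normalized to 30 nM R1881 as 100% and DMSO as 0%. Compound exposure was 16 h at 37 C on AR-UAS-bla HEK293 cells, with a 405/460/530 nm CCF4 fluorescence read.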

[15] = target: Peroxisome proliferator-activated receptor delta (Homo sapiens) (UniProt Q03181); assay: qHTS assay for small molecule agonists of peroxisome proliferator-activated receptor delta signaling (AID 588534; calls by dose curve; note: potency is the fitted concentration of half-maximal effect); settings: HEK293T PPARdelta-UAS-bla, beta-lactamase ratio, 18 h; activation: at 76.7 µM (top of the series)
Method in brief: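 Reporter cells were plated and held 5 hrs at 37 C before compounds were added. After 18 hrs at 37 C, CCF4 dye was loaded for 2 hrs at RT and fluorescence measured.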

[16] = target: Peroxisome proliferator-activated receptor delta (Homo sapiens) (UniProt Q03181); assay: qHTS assay for small molecule antagonists of peroxisome proliferator-activated receptor delta signaling (AID 588535; active = well fitted inhibition curve with a large enough effect in the signal ratio, with a control signal flat, not every such curve was filed as active; inconclusive = small, poorly fitted or top-dose-only effect, or effect the other way, or a change in a side signal; inactive = no such curve, though single readings can be large or run the other way; the % refers to the signal ratio; note: potency is the fitted concentration of half-maximal effect); settings: HEK293T PPARd-UAS-bla, beta-lactamase FRET ratio, 18 h; activity change, negative = inhibition: at 76.7 µM (top of the series)
Method in brief: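 Cell-based beta-lactamase assay in antagonist mode: 4000 HEK293T PPAR-delta-UAS-bla cells per well, 5 hr preincubation then 18 hr compound incubation at 37 C. IC50 obtained by Hill equation fitting.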

[17] = target: Peroxisome proliferator-activated receptor gamma (Homo sapiens) (UniProt P37231); assay: qHTS assay for small molecule antagonists of peroxisome proliferator-activated receptor gamma signaling (AID 588537; active = well fitted inhibition curve with a large enough effect in the signal ratio, with a control signal flat, not every such curve was filed as active; inconclusive = small, poorly fitted or top-dose-only effect, or effect the other way, or a change in a side signal; the % refers to the signal ratio; note: potency is the fitted concentration of half-maximal effect;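 note: reporter cells co-stimulated with 50 nM rosiglitazone agonist during compound treatment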; for activity, negative = inhibition: % of control where 0% means no effect); settings: HEK293 PPARg-UAS-bla, beta-lactamase ratio, antagonist mode; activity, negative = inhibition: at 76.8 µM (top of the series)
Method in brief: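 Inhibitors of agonist-stimulated UAS-bla reporter activity were sought in HEK293 cells; rosiglitazone (50 nM) defined full signal and DMSO baseline. Curves fitted to Hill model gave IC50 and efficacy.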

[18] = target: Retinoic acid receptor RXR-alpha (Homo sapiens) (UniProt P19793); assay: qHTS assay for small molecule antagonists of retinoid X receptor alpha signaling (AID 588546; active = well fitted inhibition curve with a large enough effect in the signal ratio, with a control signal flat, not every such curve was filed as active; inconclusive = small, poorly fitted or top-dose-only effect, or effect the other way, or a change in a side signal; inactive = no such curve, though single readings can be large or run the other way; the % refers to the signal ratio; note: potency is the fitted concentration of half-maximal effect); settings: HEK293T RXRa-UAS-bla, beta-lactamase ratio, antagonist mode
Method in brief: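 Beta-lactamase reporter inhibition, read as CCF4 fluorescence ratio (ex 405, em 460/530 nm) after 2 h at RT. HEK293T UAS-bla cells, 2500/well, were stimulated with 9-cis-RA at 500 or 100 nM final alongside test compound for 18 h at 37 C.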

[19] = target: Thyroid hormone receptor beta (Homo sapiens) (UniProt P10828); assay: qHTS assay for small molecule antagonists of thyroid hormone receptor beta signaling (AID 588547; active = well fitted inhibition curve with a large enough effect in the signal ratio, with a control signal flat, not every such curve was filed as active; inconclusive = small, poorly fitted or top-dose-only effect, or effect the other way, or a change in a side signal; the % refers to the signal ratio; note: potency is the fitted concentration of half-maximal effect); settings: TR-UAS-bla HEK293, beta-lactamase ratio, antagonist mode, 18 h
Method in brief: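 Inhibition of T3-driven (0.4nM final) beta-lactamase reporter activity was measured over 0.59 nM to 92 uM compound after 18 h at 37 C. The cells were GripTite HEK293 TR-UAS-bla in charcoal/dextran-stripped serum, with CCF4 ratio read-out and IC50 from Hill fits.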

[20] = qHTS assay for small molecule agonists of the antioxidant response element (ARE) signaling pathway (AID 651741; active = well fitted activation curve with a large enough effect in the signal ratio; inconclusive = small, poorly fitted or top-dose-only effect, or effect the other way, or a change in a side signal; the % refers to the signal ratio; note: potency is the fitted concentration of half-maximal effect; for activation: % of control where 0% means no effect); settings: HepG2 ARE-bla reporter, beta-lactamase FRET ratio, 16 h; activation: at 96 µM (top of the series)
Method in brief: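 Seeding 2,000 ARE-bla HepG2 cells per well preceded a 5 h incubation at 37 C/5% CO2 and a 16 h compound exposure at 37 C. Beta-lactamase reporter activity was then quantified by fluorescence after 2 h with LiveBLAzer B/G FRET substrate.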

[21] = qHTS assay to identify small molecules that stimulate interleukin-8 (IL-8) secretion (AID 651758; active = well fitted activation curve with a large enough effect in the signal ratio; inconclusive = small, poorly fitted or top-dose-only effect, or effect the other way, or a change in a side signal; the % refers to the signal ratio; note: 0% is about no effect); settings: HTRF ratio (665/615); activation: at 92.2 µM (top of the series)
Method in brief: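 Secreted IL-8 measured by TR-FRET sandwich (cryptate and XL665 antibodies) from THP-1 cells exposed to compound overnight (16 hrs, 37 C).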

[22] = qHTS assay for cell viability of HEK293 cells (AID 743288); settings: ATP luminescence (CellTiter-Glo), 18 h; max response: hits give low values; note: potency is the fitted concentration of half-maximal effect; nearly all actives have a fitted effect of over 50% in size
Method in brief: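 The Tox21 protocol used parental HEK293 cells treated for 18 h at 37 C with compounds delivered by pintool; ATP-coupled luminescence after 30 min at room temperature gave viability.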

[23] = Confirmation and Secondary Assay for Modulators of Hemoglobin Beta Chain Splicing at IVS2 654 locus (AID 910);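 note: HeLa cells stably carrying EGFP split by mutant beta-globin IVS2-654 intron; per-well total GFP intensity by laser scanning cytometry after 2-day treatment; potency is the fitted concentration of half-maximal effect; potency of activators that raise GFP signal by restoring correct splicing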
Method in brief: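 Readout: per-well total peak green fluorescence (488 nm ex, 500–520 nm em) from objects 5–250 µm, reflecting correct splicing of an EGFP-654 reporter. Compounds were applied for 2 days at 37 °C to overnight-plated HeLa EGFP-654 cells; controls were DMSO and 500 nM IVS2-654 PNA.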

[24] = Confirmation and Secondary Assay for Modulators of Hemoglobin Beta Chain Splicing at IVS2 705 locus (AID 930); settings: HeLa EGFP-705 splicing reporter, GFP fluorescence, 48 h;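 note: GFP fluorescence per well restored by corrected splicing of the IVS2-705 intron in EGFP; potency is the fitted concentration of half-maximal effect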
Method in brief: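 Stable HeLa line with EGFP disrupted by mutant beta-globin intron 2 (705). Overnight attachment, then 2 days of compound at 37C, 5% CO2. Signal: peak GFP intensity summed over objects 5-250 µm.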

[25] = target: DNA repair nuclease/redox regulator APEX1 (Homo sapiens) (UniProt P27695); assay: Confirmation qHTS Assay for Inhibitors of the Human Apurinic/apyrimidinic Endonuclease 1 (APE1) (AID 2572); note: potency is the fitted concentration of half-maximal effect; nearly all actives have a fitted effect of over 30% in size
Method in brief: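 15 min RT compound–APE1 preincubation → add 50 nM final THF-abasic TAMRA/BHQ-2 dsDNA → immediate kinetic read, 3 × 60 s, Ex 525/Em 598 → Δ fluorescence (read 3 − read 1).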

[26] = S16 Schwann cell PMP22 intronic element firefly luciferase assay (AID 624032); note: potency is the fitted concentration of half-maximal effect; nearly all actives have a fitted effect of over 30% in size
Method in brief: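 Luciferase reporter of PMP22 intronic-element expression in stably transfected S16 rat Schwann cells, read by ONE-Glo luminescence after 24 h compound exposure at 37 C. Activity scaled between DMSO (0%) and positive-control PTC124; concentration-effect curves quality-classified.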

[27] = target: Bifunctional 3'-5' exonuclease/ATP-dependent helicase WRN (Homo sapiens) (UniProt Q14191); assay: qHTS for Inhibitors of WRN Helicase: Confirmatory Assay for Cherry-picked Compounds. (AID 720497); settings: WRN helicase DNA unwinding, fluorescence kinetic; note: potency is the fitted concentration of half-maximal effect; nearly all actives have a fitted effect of over 65% in size
Method in brief: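 Helicase activity is tracked as a kinetic fluorescence signal (excitation 525 nm, emission 598 nm) after 100 nM forked duplex DNA and 2 mM ATP are added to 20 nM WRN that has been preincubated 15 min with compound at room temperature.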

[28] = target: DNA polymerase kappa (Homo sapiens) (UniProt Q9UBT6); assay: qHTS for Inhibitors of Polymerase Kappa: Confirmatory Assay for Cherry-picked Compounds (AID 720501); settings: purified Pol-kappa, fluorescent strand-displacement substrate; note: potency is the fitted concentration of half-maximal effect
Method in brief: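 Strand-displacement fluorescence read-out: TAMRA reporter released from a BHQ-2-quenched template, measured at 525/598 nm over a 10 min kinetic window. Substrate was 50 nM final; enzyme was 10 nM Pol-kappa, preincubated 15 min at room temperature with compound.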
Tags give direction and shape of the fitted curve or compound fluorescence and quenching.

UniProt Q03181, sequence (Q03181 whole entry, looked up): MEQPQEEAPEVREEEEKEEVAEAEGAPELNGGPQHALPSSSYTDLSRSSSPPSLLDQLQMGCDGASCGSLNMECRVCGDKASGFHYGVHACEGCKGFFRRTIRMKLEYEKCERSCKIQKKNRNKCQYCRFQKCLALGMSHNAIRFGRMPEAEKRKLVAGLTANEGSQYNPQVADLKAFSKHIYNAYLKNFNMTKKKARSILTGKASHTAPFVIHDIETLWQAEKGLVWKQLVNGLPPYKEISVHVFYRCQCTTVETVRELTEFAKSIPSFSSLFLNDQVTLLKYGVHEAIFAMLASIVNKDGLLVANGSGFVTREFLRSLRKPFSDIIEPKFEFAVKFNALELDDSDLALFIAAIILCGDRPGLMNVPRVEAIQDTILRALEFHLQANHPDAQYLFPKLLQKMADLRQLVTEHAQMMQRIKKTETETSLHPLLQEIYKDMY
UniProt P03372, sequence (P03372 whole entry, looked up): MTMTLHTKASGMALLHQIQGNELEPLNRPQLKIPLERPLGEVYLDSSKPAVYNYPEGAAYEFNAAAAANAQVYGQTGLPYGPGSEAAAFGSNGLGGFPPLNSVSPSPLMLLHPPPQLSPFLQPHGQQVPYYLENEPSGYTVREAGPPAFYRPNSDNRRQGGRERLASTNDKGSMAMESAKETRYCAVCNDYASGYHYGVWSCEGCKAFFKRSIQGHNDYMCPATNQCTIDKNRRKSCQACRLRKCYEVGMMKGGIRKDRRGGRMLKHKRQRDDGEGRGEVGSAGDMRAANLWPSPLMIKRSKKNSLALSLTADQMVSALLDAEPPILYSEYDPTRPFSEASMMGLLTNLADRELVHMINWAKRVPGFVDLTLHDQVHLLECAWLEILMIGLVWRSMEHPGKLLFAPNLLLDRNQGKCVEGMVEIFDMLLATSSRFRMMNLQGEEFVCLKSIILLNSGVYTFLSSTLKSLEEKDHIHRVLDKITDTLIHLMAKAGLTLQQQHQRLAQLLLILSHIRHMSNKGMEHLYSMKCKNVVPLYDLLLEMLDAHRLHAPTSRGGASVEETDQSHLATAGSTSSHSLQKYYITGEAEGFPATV
UniProt Q9UBT6, sequence (Q9UBT6 whole entry, looked up): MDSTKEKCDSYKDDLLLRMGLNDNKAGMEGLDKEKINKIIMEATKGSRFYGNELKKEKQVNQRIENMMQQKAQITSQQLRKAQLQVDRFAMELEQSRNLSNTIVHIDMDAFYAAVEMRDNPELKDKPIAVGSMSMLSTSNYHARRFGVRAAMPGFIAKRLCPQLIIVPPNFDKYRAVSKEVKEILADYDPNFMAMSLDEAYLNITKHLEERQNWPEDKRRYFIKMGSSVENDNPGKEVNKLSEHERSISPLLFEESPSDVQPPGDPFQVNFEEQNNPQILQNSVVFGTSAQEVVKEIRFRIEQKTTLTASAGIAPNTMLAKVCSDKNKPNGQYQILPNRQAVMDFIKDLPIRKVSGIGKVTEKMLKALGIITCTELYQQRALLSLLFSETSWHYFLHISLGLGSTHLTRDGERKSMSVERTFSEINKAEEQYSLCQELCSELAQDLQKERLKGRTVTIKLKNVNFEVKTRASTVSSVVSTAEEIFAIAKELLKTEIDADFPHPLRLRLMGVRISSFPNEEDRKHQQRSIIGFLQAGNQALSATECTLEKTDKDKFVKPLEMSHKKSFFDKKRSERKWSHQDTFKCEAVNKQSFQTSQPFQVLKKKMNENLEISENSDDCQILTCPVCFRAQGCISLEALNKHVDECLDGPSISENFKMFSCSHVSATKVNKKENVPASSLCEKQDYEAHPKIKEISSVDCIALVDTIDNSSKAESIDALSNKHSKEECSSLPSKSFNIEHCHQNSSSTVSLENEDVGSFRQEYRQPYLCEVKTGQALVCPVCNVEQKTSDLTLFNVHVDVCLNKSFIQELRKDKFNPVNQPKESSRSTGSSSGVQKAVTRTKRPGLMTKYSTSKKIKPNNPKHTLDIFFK
UniProt P19793, sequence (P19793 whole entry, looked up): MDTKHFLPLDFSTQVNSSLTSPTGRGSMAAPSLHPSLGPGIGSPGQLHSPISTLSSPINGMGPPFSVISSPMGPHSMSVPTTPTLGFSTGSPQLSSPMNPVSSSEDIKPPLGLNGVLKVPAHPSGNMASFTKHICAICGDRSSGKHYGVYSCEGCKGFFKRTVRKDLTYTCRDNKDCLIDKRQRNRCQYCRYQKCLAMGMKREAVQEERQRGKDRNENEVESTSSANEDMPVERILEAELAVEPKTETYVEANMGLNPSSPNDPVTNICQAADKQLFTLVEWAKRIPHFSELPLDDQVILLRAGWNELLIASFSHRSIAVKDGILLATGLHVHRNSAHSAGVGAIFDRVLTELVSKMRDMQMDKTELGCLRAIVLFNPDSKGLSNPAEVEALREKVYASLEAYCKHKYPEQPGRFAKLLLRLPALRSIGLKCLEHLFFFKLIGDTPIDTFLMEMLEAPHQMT
UniProt Q14191, sequence (Q14191 whole entry, looked up): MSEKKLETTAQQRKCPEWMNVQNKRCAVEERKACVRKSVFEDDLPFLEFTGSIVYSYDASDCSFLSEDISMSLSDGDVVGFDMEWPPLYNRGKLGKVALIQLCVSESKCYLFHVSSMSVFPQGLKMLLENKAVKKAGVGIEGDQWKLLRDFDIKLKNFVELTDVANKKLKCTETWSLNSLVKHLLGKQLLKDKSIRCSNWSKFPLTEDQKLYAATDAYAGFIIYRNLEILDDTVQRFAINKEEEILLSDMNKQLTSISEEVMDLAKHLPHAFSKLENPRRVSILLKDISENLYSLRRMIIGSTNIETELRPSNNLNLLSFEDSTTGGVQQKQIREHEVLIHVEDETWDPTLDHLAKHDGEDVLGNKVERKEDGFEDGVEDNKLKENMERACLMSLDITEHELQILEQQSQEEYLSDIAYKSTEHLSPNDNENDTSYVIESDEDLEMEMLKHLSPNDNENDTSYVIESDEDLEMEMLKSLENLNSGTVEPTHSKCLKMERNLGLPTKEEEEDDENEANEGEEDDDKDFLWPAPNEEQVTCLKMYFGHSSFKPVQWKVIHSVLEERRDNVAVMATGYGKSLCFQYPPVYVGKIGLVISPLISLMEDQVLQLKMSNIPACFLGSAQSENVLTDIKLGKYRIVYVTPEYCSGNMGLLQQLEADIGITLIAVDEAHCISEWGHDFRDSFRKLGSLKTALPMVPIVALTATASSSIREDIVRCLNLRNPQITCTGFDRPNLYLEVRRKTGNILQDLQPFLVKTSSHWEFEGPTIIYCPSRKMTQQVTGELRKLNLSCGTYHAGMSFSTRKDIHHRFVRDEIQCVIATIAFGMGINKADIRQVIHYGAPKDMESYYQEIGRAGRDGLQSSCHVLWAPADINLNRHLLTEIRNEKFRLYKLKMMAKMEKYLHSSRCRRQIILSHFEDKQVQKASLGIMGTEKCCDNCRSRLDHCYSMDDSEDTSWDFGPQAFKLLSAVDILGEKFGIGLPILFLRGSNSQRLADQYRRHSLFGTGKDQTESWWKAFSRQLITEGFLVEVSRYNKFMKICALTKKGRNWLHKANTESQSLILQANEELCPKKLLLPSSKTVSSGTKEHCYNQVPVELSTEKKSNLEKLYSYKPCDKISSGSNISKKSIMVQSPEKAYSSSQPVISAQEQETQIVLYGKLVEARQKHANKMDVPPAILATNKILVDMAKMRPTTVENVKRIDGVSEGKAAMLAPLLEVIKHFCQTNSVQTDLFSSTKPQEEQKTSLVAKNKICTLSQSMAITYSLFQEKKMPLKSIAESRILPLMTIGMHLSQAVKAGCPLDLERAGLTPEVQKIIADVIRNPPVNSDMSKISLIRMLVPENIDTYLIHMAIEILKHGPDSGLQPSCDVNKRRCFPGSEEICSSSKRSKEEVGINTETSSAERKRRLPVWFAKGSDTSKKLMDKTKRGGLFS
UniProt P10275, sequence (P10275 whole entry, looked up): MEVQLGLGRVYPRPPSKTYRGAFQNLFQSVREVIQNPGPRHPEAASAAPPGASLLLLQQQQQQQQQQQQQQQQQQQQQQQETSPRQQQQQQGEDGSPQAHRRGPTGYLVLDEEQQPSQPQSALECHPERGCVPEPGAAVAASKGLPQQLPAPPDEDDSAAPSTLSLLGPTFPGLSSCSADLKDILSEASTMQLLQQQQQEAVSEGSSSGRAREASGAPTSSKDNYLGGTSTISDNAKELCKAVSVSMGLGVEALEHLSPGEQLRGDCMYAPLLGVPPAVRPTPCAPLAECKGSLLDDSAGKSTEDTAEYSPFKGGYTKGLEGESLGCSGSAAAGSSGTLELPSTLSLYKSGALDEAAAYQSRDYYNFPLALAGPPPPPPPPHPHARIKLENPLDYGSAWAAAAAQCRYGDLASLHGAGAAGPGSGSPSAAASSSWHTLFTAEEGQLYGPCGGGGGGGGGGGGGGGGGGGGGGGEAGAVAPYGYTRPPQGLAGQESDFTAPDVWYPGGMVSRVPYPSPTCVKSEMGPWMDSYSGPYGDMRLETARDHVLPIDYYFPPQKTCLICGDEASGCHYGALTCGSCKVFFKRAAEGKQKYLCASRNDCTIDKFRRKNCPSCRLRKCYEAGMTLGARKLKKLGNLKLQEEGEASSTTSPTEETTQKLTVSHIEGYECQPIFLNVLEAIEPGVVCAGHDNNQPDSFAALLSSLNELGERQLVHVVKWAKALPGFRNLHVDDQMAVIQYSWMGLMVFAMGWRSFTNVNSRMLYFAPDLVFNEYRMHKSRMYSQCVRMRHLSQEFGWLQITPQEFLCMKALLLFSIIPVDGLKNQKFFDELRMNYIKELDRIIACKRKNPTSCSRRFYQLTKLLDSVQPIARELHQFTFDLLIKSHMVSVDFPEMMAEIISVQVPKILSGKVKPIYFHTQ
UniProt P27695, sequence (P27695 whole entry, looked up): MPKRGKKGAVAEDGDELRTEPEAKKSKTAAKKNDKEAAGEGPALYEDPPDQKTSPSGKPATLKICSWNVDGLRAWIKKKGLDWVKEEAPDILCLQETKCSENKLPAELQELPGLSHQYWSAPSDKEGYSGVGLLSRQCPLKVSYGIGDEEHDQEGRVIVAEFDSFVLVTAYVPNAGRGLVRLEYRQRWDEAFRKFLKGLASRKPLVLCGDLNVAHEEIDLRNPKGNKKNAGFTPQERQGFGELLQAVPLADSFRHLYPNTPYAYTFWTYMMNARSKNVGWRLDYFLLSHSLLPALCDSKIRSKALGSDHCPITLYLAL

O=C(c1ccco1)N1CCC2(CC1)CN(Cc1ccncc1)C2
inconclusive: activity change, negative = inhibition [2] -46.1% [inhibitor] | activity change, negative = inhibition [3] 7.81%
inactive: activity change, negative = inhibition [1] 5.89% [at 7.69 µM]

COP(=S)(OC)SCn1nnc2ccccc2c1=O
inconclusive: Potency [4] 45.5 µM [partial curve] | Potency [5] 94 µM [single point] | activity change, negative = cytotoxicity [6] -51.5% | activity change, negative = cytotoxicity [7] -45.8% | Potency [8] 39.8 µM [falling, partial curve] | Potency [9] 79.4 µM [cytotoxic, single point] | Potency [10] 79.4 µM [cytotoxic, single point] | activity change, negative = inhibition [3] 3.84% | Potency [15] 25.1 µM [side channel, rising, partial curve] | Potency [16] 31.6 µM [side channel, rising, full curve, poor fit] | activity change, negative = inhibition [16] -98.4% | Potency [17] 44.7 µM [fluorescent, side channel, single point] | activity, negative = inhibition [17] -18.6% | Potency [18] 10 µM [cytotoxic, side channel, partial curve, poor fit] | max response [18] -19.2% | Potency [19] 39.8 µM [side channel, rising, partial curve, poor fit] | Potency [20] 29.8 µM [activator, partial curve] | activation [20] -1.02% | activation [21] -0.92% | Potency [22] 79.4 µM [cytotoxic, partial curve, poor fit]
active: Potency [12] 31.6 µM [inconclusive]
inactive: Potency [11] | Potency [13] | activation [14] -9.55% and -1.17%

CC(C)CN1CCCC2(CCN(C(=O)c3ccncc3)CC2)C1
inactive: Potency [3]
inconclusive: activity change, negative = inhibition [2] -48.6% [inhibitor]

C[n+]1c2cc(N)ccc2cc2ccc(N)cc21
inconclusive: Potency [23] 2.51 µM [activator, partial curve, poor fit] | Potency [24] 2.51 µM [activator, partial curve, poor fit] | Potency [3] 20 µM [inhibitor, single point]
active: Potency [25] 6.31 µM | Potency [26] 1.81 µM | Potency [27] 19.2 µM and 10.8 µM | Potency [28] 10.6 µM and 7.52 µM
